Inconclusive means that the source gave no clear call. Such entries were picked first, then a sample of the others. For some of these results: Potencies of inconclusive entries are doubtful fits and often do not repeat. Active and inactive are the calls of the source. Unless noted, calls come from the whole dose curve; as a rule, active = well fitted curve in the direction sought with a large enough effect; inconclusive = small, poorly fitted or top-dose-only effect, or another doubt; inactive = no such curve, though single readings can be large; an effect the other way counts as inactive or inconclusive.
Assays:
[1] = molecular target: Muscarinic acetylcholine receptor M1 (Rattus norvegicus) (UniProt P08482); test: qHTS Assay for Antagonists of Acetylcholine Muscarinic M1 Receptor: Measurement of IP-One Response (AID 944); note: potency is the fitted concentration of half-maximal effect; nearly all actives have a fitted effect of over 75% in size
[2] = molecular target: Pyruvate kinase (Leishmania mexicana) (UniProt Q27686); test: qHTS Validation Assay for Inhibitors of Leishmania Mexicana Pyruvate Kinase (AID 945);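 note: 0% = DMSO only neutral control wells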
Method in brief: (§1)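 LmPYK E451W 0.2 nM; 0.5 mM PEP, 0.1 mM ADP, 7 mM MgCl2, 50 mM KCl, imidazole pH 7.2, 0.01% Tween 20, 0.05% BSA; 1 h RT; PKLight luminescence; DMSO-normalized.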

[3] = molecular target: Pyruvate kinase (Leishmania mexicana) (UniProt Q27686); test: qHTS Validation Assay for Activators of Leishmania Mexicana Pyruvate Kinase (AID 959); conditions: purified L. mexicana pyruvate kinase, enzyme activity
Method in brief: as §1

[4] = molecular target: Thyroid hormone receptor beta (Homo sapiens) (UniProt P10828); test: qHTS assay for small molecule agonists of thyroid hormone receptor beta signaling (AID 588545; calls by dose curve;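 note: 0% = DMSO only and 100% = 10 nM T3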); conditions: TR-UAS-bla GripTite HEK 293, beta-lactamase ratio, agonist mode, 18 h; activation: at 76.7 µM, percent of T3 response, DMSO as zero
Method in brief: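 Stimulation of a TR-driven beta-lactamase reporter was quantified in GripTite HEK 293 cells. Compound series ran for 18 hrs; curves were normalized to T3 and DMSO controls and fitted to yield EC50.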
Tags give direction and shape of the fitted curve.

UniProt Q27686, sequence (Q27686 2-499 E452W): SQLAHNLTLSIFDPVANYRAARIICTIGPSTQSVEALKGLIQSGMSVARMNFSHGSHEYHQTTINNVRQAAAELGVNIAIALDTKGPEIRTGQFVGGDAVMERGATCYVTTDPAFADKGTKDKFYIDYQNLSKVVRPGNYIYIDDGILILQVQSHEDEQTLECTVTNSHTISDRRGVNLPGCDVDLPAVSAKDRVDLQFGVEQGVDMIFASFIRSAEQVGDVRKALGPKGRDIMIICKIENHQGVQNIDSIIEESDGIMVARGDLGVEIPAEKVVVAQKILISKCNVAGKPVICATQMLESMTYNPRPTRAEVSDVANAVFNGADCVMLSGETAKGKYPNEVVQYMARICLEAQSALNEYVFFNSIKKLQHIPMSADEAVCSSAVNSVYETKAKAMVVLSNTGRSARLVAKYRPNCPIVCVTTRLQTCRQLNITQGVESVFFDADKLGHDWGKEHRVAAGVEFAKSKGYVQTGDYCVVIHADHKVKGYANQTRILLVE
UniProt P10828, sequence (P10828 whole entry, looked up): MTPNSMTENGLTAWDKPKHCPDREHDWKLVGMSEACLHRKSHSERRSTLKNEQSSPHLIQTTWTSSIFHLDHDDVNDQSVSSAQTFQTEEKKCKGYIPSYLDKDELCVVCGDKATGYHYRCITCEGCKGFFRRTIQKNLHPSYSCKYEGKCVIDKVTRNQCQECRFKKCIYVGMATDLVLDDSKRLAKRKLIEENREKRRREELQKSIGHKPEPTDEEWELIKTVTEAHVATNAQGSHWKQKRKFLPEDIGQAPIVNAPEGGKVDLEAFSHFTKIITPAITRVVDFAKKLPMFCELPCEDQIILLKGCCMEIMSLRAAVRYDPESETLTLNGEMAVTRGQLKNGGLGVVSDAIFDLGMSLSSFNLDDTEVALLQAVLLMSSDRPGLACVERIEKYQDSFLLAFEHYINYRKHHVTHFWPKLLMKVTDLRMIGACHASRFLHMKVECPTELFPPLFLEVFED
UniProt P08482, sequence (P08482 whole entry, looked up): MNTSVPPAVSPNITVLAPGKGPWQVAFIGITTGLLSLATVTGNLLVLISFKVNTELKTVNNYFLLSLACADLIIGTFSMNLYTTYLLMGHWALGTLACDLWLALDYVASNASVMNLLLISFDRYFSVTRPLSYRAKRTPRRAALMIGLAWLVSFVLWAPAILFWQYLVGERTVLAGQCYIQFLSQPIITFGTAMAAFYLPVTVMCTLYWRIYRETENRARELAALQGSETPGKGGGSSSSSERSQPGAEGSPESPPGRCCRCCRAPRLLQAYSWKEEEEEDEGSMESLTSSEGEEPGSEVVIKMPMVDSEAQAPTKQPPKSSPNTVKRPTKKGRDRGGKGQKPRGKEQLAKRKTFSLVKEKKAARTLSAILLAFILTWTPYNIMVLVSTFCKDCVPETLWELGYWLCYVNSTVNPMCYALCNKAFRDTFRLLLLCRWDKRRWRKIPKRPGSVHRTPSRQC

## CO[C@]1(NC(=O)CSCC#N)C(=O)N2C(C(=O)O)=C(CSc3nnnn3C)CS[C@H]21
[1]
  Potency: inconclusive: 11.2 µM [inhibitor, partial curve, poor fit]
[2]
  Potency: inactive

## CC(=O)OCC1=C(C(=O)O)N2C(=O)[C@@H](NC(=O)CSc3ccncc3)[C@@H]2SC1
[3]
  Potency: active: 15.8 µM

## C/C=C\c1ccc(OC)cc1
[4]
  activation: inactive: -8.82%
